Assay results as given in the antibiotic and cytotoxicity screens of Wong et al. (2023).
The other results are listed elsewhere or left out.

system: S. aureus RN4220; experiment: growth inhibition call (relative growth <= 0.2); details: 50 µM

Structure (SMILES) | growth inhibition call
C[C@H](O)C#Cc1cnc2c(c1)C(=O)N([C@@H](C)CO)C[C@@H](C)[C@@H](CN(C)C(=O)CN1CCOCC1)O2 | inactive
C[C@@H]1CN([C@@H](C)CO)C(=O)c2cccc(NC(=O)c3nc4ccccc4s3)c2O[C@@H]1CN(C)C(=O)Nc1ccc(F)cc1 | inactive
C[C@H]1CN([C@@H](C)CO)C(=O)c2cc(C#CC3(O)CCCC3)cnc2O[C@H]1CN(C)C(=O)Cc1ccncc1 | inactive
Nc1nc(=O)c2[nH]c(=O)cnc2[nH]1 | inactive
Cc1ccc(S(=O)(=O)N2C[C@@H](O)COC[C@@H]3O[C@@H](CC(=O)NCc4ccc(Cl)c(Cl)c4)CC[C@H]32)cc1 | inactive
C[C@@H]1CN([C@@H](C)CO)C(=O)c2cc(NC(=O)Cc3ccccc3)ccc2O[C@@H](C)CCCCO[C@@H]1CN(C)C(=O)Cc1ccccc1 | inactive
COc1cccc(C#Cc2cnc3c(c2)C(=O)N([C@@H](C)CO)C[C@H](C)[C@@H](CN(C)C(=O)C2CCOCC2)O3)c1 | inactive
CCOc1ccc2ccccc2c1C(=O)NC1C(=O)N2C1SC(C)(C)C2C(=O)[O-].[Na+] (stereo unspecified) | active
Cc1ccc(S(=O)(=O)N(C)C[C@H]2Oc3ccc(NC(=O)c4ccncc4)cc3CC(=O)N([C@H](C)CO)C[C@H]2C)cc1 | inactive
C[C@@H]1CCCCO[C@H](CN(C)Cc2ccc(Cl)c(Cl)c2)[C@H](C)CN([C@@H](C)CO)C(=O)c2cc(NS(=O)(=O)c3ccccc3)ccc2O1 | inactive
CCCN(C)C[C@@H]1OCCCC[C@@H](C)Oc2ccc(NC(=O)C3CCCCC3)cc2C(=O)N([C@H](C)CO)C[C@@H]1C | inactive
Cc1noc(C)c1S(=O)(=O)Nc1ccc2c(c1)C(=O)N([C@@H](C)CO)C[C@@H](C)[C@H](CN(C)C(=O)Nc1ccc3c(c1)OCO3)O2 | inactive
Cc1ccc(S(=O)(=O)Nc2ccc3c(c2)C(=O)N([C@H](C)CO)C[C@@H](C)[C@@H](CN(C)C(=O)Nc2cccc4ccccc24)O3)cc1 | inactive
O=C(N[C@H]1CC[C@@H](CC(=O)N2CCOCC2)O[C@H]1CO)c1ccccn1 | inactive
C[C@H](CO)N1C[C@H](C)[C@@H](CN(C)Cc2ccc(-c3ccccc3)cc2)Oc2ccc(NC(=O)Nc3ccc4c(c3)OCO4)cc2C1=O | inactive
C[C@@H]1CN([C@H](C)CO)C(=O)c2cc(NC(=O)Cc3ccccc3)ccc2O[C@@H](C)CCCCO[C@@H]1CN(C)Cc1ccccc1 | inactive
C[C@H]1CCCCO[C@H](CN(C)Cc2ccc3c(c2)OCO3)[C@@H](C)CN([C@@H](C)CO)C(=O)c2cc(NC(=O)NC3CCCCC3)ccc2O1 | inactive
C[C@@H]1CCCCO[C@@H](CN(C)Cc2ccc3c(c2)OCO3)[C@@H](C)CN([C@@H](C)CO)C(=O)c2cc(NC(=O)c3ccccc3)ccc2O1 | inactive
C[C@@H]1CN([C@H](C)CO)C(=O)c2cccc(NS(=O)(=O)c3cccs3)c2O[C@@H]1CN(C)Cc1ccc(-c2ccccc2)cc1 | inactive
O=C(C[C@@H]1CC[C@H]2[C@@H](COC[C@@H](O)CN2S(=O)(=O)c2ccccc2)O1)N[C@H]1CCN(Cc2ccccc2)C1 | inactive
C[C@H]1CN([C@@H](C)CO)C(=O)c2cc(NS(=O)(=O)c3cn(C)cn3)ccc2O[C@H]1CN(C)Cc1ccncc1 | inactive
COC(=O)[C@@H](Cc1ccc(-n2cc(C(=O)NO)nn2)cc1)N1CC2=CC(=O)[C@@H](C3CC3)[C@@H]2[C@H]1[C@H](O)Cc1ccccc1 | inactive
C[C@@H]1CN([C@H](C)CO)C(=O)c2cc(NS(=O)(=O)c3ccc(Cl)cc3)ccc2O[C@@H]1CN(C)Cc1ccc(Oc2ccccc2)cc1 | inactive
C=c1cc(C)ccc1=C1NN=C(NC(C)=O)O1 | inactive
CC(C)NC(=O)Nc1ccc2c(c1)C(=O)N([C@@H](C)CO)C[C@@H](C)[C@@H](CN(C)Cc1ccc(Oc3ccccc3)cc1)O2 | inactive
C[C@@H]1O[C@H](O[C@@H]2[C@H](O)C[C@@]3(C)[C@@H](CC[C@]4(C)[C@H]3CC=C3[C@H]5CC(C)(C)CC[C@@]5(C(=O)O[C@H]5O[C@@H](C)[C@@H](O)[C@H](O[C@H]6OC[C@@H](O)[C@@H](O)[C@@H]6O)[C@H]5O[C@@H]5O[C@H](C)[C@H](O)[C@H](O[C@@H]6OC[C@H](O)[C@H](O[C@@H]7O[C@H](C)[C@@H](O)[C@H](O)[C@@H]7O)[C@H]6O)[C@H]5O)[C@@H](O)C[C@@]34C)[C@]2(C)CO)[C@@H](O)[C@H](O[C@H]2OC[C@@H](O)[C@@H](O[C@H]3OC[C@@H](O[C@H]4OC[C@@](O)(CO)[C@@H]4O)[C@@H](O)[C@@H]3O)[C@@H]2O)[C@@H]1O | inactive
